Measurements reported in the supplement of paper PMC12067230.
This is a noisy data set.

Experiment: amyloid nucleation score relative to library mode (yeast Sup35 reporter selection) (log enrichment difference); higher = more amyloid nucleation; sequences are the first 22 residues of the Bri2 peptide extended by up to 12 random residues
Details: random library (experiment): 1;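 active = nucleation score significantly above 0 at FDR 0.05; inactive = not significantly above 0 or absent from output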
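Note: [psi-pin-] Saccharomyces cerevisiae expressing SupN fusions, induced by 100 µM Cu2SO4, selected 7 d at 30 °C without adenine and uracil, scored by deep sequencing of output versus input.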

Sequence | amyloid nucleation score
EASNCFAIRHFENKFAVETLICDMFWRCGHRVMR | 2.19
EASNCFAIRHFENKFAVETLICDMGCARITVKAG | inactive
EASNCFAIRHFENKFAVETLICDMGG | inactive
EASNCFAIRHFENKFAVETLICDMLRSLGYEMPE | inactive
EASNCFAIRHFENKFAVETLICDMLVKK | inactive
EASNCFAIRHFENKFAVETLICDMMGLSALARDP | 0.268
EASNCFAIRHFENKFAVETLICDMPRARH | 2.2
EASNCFAIRHFENKFAVETLICDMTSQLYRKSVY | inactive
EASNCFAIRHFENKFAVETLICDMV | inactive
EASNCFAIRHFENKFAVETLICDMWYSACTGLLW | -0.345
EASNCFAIRHFENKFAVETLICDMYHWNLMAWMA | inactive
EASNCFAIRHFENKFAVETLICDMYRVGGSCRVA | inactive
EASNCFAIRHFENKFAVETLICDNCDDNLYSEKY | inactive
EASNCFAIRHFENKFAVETLICDNESWWSEPSRS | inactive
EASNCFAIRHFENKFAVETLICDNTFSM | inactive
EASNCFAIRHFENKFAVETLICDNVCNLGRFWAW | 7.93
EASNCFAIRHFENKFAVETLICDNVNNESEIMIW | inactive
EASNCFAIRHFENKFAVETLICDNVVACEHEAAV | inactive

Same assay, conditions: random library (experiment): 2

Sequence | amyloid nucleation score
EASNCFAIRHFENKFAVETLICDMGLAYCNHYVN | inactive
EASNCFAIRHFENKFAVETLICDMLFWMYKKCGL | inactive
EASNCFAIRHFENKFAVETLICDMLKV | 0.393
EASNCFAIRHFENKFAVETLICDMTWVCVGKQVT | 4.99
EASNCFAIRHFENKFAVETLICDMVGN | inactive
EASNCFAIRHFENKFAVETLICDMYTDNSASTDG | inactive
EASNCFAIRHFENKFAVETLICDNANYHMYCSCV | 8.04
EASNCFAIRHFENKFAVETLICDNDKYVGIIRVI | 1.29
EASNCFAIRHFENKFAVETLICDNFVWL | 0.571
EASNCFAIRHFENKFAVETLICDNGGIGSSALHV | inactive
EASNCFAIRHFENKFAVETLICDNGHALSYNWND | inactive
EASNCFAIRHFENKFAVETLICDNIEETMYVVCM | inactive
EASNCFAIRHFENKFAVETLICDNIFDILESATY | inactive
EASNCFAIRHFENKFAVETLICDNINRSYAVWVM | inactive
EASNCFAIRHFENKFAVETLICDNLCSWDGEYMY | 1.21
EASNCFAIRHFENKFAVETLICDNLVLIYGFSEV | 6.46
EASNCFAIRHFENKFAVETLICDNRAMDMRVFKR | 3.14
EASNCFAIRHFENKFAVETLICDNRKEFRTVKVR | inactive
EASNCFAIRHFENKFAVETLICDNRKMCEFFLLF | 6.13
EASNCFAIRHFENKFAVETLICDNRSSITLGLEW | 3.53

Same assay, conditions: random library (experiment): 3

Sequence | amyloid nucleation score
EASNCFAIRHFENKFAVETLICDMINTSDITKYS | inactive
EASNCFAIRHFENKFAVETLICDMPFRWLDATWE | inactive
EASNCFAIRHFENKFAVETLICDMRVKYIFYKVS | inactive
EASNCFAIRHFENKFAVETLICDMVLQEGSEGKR | inactive
EASNCFAIRHFENKFAVETLICDMVNTIGMHRMR | inactive
EASNCFAIRHFENKFAVETLICDMVSHRLFLI | inactive
EASNCFAIRHFENKFAVETLICDNCVGLVNGHSA | 5.01
EASNCFAIRHFENKFAVETLICDNGRLMTYSVLG | inactive
EASNCFAIRHFENKFAVETLICDNQSEELLEIVR | inactive
